# Test results reported in the BET-seq Pho4 binding data (Le et al. 2018).
# The other results are listed elsewhere or left out. The energies were worked out here from pooled read counts, against the library average; single values are noisy.
# Target: T1, Pho4 (S. cerevisiae) (UniProt P07270)
# T1 sequence: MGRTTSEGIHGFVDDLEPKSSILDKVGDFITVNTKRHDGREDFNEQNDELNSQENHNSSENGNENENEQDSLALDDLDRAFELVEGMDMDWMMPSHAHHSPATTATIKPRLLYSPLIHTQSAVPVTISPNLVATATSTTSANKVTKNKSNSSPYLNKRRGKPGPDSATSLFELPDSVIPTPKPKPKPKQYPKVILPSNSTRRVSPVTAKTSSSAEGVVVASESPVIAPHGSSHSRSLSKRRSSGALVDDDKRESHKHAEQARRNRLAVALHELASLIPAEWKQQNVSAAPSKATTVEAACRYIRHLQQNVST
# Experiment: relative binding free energy (BET-seq); higher = weaker binding
# Conditions: reference: library average
row,Sequence,relative binding free energy [kcal/mol]
1,GTTATCACGTGGGTGT,0.1
2,TGTTTCACGTGATAAT,0.27
3,AAGCTCACGTGTGAGG,0.28
4,TAGAGCACGTGGTTTA,0.03
5,TATTACACGTGGCTTG,0.05
6,TGGTTCACGTGTCCTG,0.29
7,TGTGGCACGTGTCTAT,-0.13
8,ATATCCACGTGTGTTG,0.08
9,ACGAGCACGTGTGGGT,-0.06
10,GAGGGCACGTGTATAT,0.04
11,TGTCGCACGTGTAATG,-0.1
12,CTTTCCACGTGAGGGT,0.16
13,AGGTCCACGTGTTTAT,0
14,GGTTTCACGTGACTAT,0.44
15,GTTTTCACGTGTCGAA,0.25
16,GATATCACGTGATTGT,0.26
17,TTTTGCACGTGTGATT,0.15
18,TCCTTCACGTGTTGGG,0.23
19,GTCATCACGTGAATGG,0.28
20,GTGTGCACGTGATCGC,0.09
21,ACGGGCACGTGATGTT,0.06
22,TGAATCACGTGAAAGT,0.33
23,TGGATCACGTGGATCG,0.24
24,ATAGACACGTGGGTGA,-0.08
25,GTGTCCACGTGAGAGG,0.24

row,Sequence,relative binding free energy [kcal/mol]
1,TATTGCACGTGGCTGT,-0.11
2,TGATTCACGTGGAGTT,0.3
3,TTGTCCACGTGAAGCG,0.43
4,GGAGGCACGTGTGTTC,-0.17
5,GAGTACACGTGAGTTA,0.25
6,ATGGCCACGTGAAGTG,0.23
7,TAGAGCACGTGGCGTG,-0.1
8,GGGGTCACGTGCTATG,0.05
9,ACTTTCACGTGGTGTT,0.26
10,TGGGTCACGTGACGGC,0.21
11,TTATTCACGTGTGCAG,0.3
12,AATGTCACGTGTAGAA,0.09
13,TAGTGCACGTGTACAG,-0.01
14,TGGTCCACGTGAATGT,0.14
15,CGTAGCACGTGGGGGG,-0.31
16,GATAGCACGTGCTGTG,-0.02
17,TGGTTCACGTGTCTGG,0.26
18,TGGTGCACGTGTCTGG,-0.05
19,TCGTTCACGTGAATTG,0.33
20,AGAGTCACGTGGTAAG,0.1
21,GGGTTCACGTGTGAGG,0.38
22,TTTGTCACGTGGGCAG,0.08
23,GGTGTCACGTGGTGTG,0.14
24,TGTTCCACGTGGAATG,0.13
25,AAGTGCACGTGGTTAT,-0.04

row,Sequence,relative binding free energy [kcal/mol]
1,CGTGGCACGTGAGGTA,0.12
2,TGGGTCACGTGTAGTT,0.14
3,AATTTCACGTGTATAA,0.2
4,TTCTGCACGTGATCGT,0.03
5,TTGCGCACGTGGGGGT,-0.22
6,GGATTCACGTGCTGGT,0.25
7,GTGCCCACGTGGAGGG,-0.14
8,GGATTCACGTGGTCTT,0.24
9,ACGTTCACGTGATGTG,0.26
10,TGTTACACGTGTCTGA,0.3
11,TTGATCACGTGATCAT,0.22
12,GGGGGCACGTGCTATA,-0.07
13,AAGGTCACGTGGTTTT,0.11
14,TGTGGCACGTGTTATG,-0.11
15,TAGTACACGTGGTGGT,0.05
16,TGGTACACGTGAGGTT,0.4
17,TATATCACGTGCAAGG,0.28
18,CAAGTCACGTGGATGT,0.09
19,GGGGCCACGTGTAGCT,0.03
20,AATTTCACGTGTTTCG,0.17
21,TATATCACGTGAGCGG,0.42
22,TGCTGCACGTGGGCGA,-0.21
23,GTAGCCACGTGCTGGG,-0.03
